Measured values as given in PubChem BioAssay AID1476 (National Center for Advancing Translational Sciences (NCATS), 2009).
About 4,500 (2.2%) of roughly 200,000 compounds were called active. This list was built around the results that the source calls inconclusive (neither active nor inactive); the mix of calls is not that of the screen. The call rests on the fitted dose curve; in most records, active means well fitted inhibition curve with a large enough effect; inconclusive means small, poorly fitted or top-dose-only effect, or effect the other way; inactive means flat fitted curve, though single readings scatter. A potency beside an inconclusive call is a rough fit, not a confirmed value.

These molecules were tested against Cruzipain (Trypanosoma cruzi) (UniProt P25779) (assay: qHTS Assay for Promiscuous and Specific Inhibitors of Cruzain (without detergent)). Details: purified cruzain, Z-FR-AMC fluorescence, no detergent.
Chain of UniProt P25779 (P25779 whole entry, looked up): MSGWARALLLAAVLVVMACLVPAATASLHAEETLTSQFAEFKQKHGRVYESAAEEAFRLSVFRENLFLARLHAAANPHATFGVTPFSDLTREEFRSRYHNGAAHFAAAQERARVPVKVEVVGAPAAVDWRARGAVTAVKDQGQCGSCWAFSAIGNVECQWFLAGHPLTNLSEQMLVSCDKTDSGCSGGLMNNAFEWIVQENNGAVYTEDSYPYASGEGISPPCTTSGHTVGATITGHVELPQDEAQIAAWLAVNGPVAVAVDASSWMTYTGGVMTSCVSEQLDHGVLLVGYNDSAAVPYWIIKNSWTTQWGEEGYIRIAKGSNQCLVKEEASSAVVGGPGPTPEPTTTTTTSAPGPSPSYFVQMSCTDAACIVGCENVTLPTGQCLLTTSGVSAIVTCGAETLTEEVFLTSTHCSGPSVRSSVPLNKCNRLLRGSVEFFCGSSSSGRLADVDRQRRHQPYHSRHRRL
In short: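 Purified cruzain at 1.5 nM, pre-incubated 15 min with compound at room temperature in 100 mM sodium acetate pH 5.5, 5 mM DTT, 0.00005% Triton X-100. Reaction started with 2 uM Z-FR-AMC; AMC fluorescence increase over 60 s gives rate.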
Further: nearly all actives have a fitted effect of over 40% in size.
Potency means the concentration at half of the fitted maximal effect; tags describe the fitted curve by direction and shape.
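Wherever max response, negative = inhibition is given: plate controls were enzyme without inhibitor for no effect and buffer without enzyme for full effect.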

Row | Compound | Potency | max response, negative = inhibition
1 | Cc1c(Cl)cnc(NC(=O)COC(=O)c2cc3c(s2)CCC(C)C3)c1Cl (configuration not stated) | inconclusive: 0.01 µM [inhibitor, full curve, poor fit] | –
2 | CCc1cccc(NC(=O)c2cc(-c3ccccc3)n[nH]2)c1 | inconclusive: 39.8 µM [inhibitor, single point] | –
3 | O=C(Nc1cccc(Cl)c1)C1CCN(c2nc3ccccc3nc2C(F)(F)F)CC1 | inconclusive: 15.8 µM [inhibitor, partial curve, poor fit] | –
4 | COc1cccc(OCCCn2c(-c3ccc(Cl)cc3)nc3ccccc3c2=O)c1 | – | inactive: -2.46%
5 | COc1cc(OC)cc(C(=O)NCCc2csc(-c3cccc(C)c3)n2)c1 | – | inactive: 6.46%
6 | CC1CCCCN1C(=O)c1ccc2c(c1)N(Cc1ccc(Cl)cc1)C(=O)c1ccccc1S2=O (configuration not stated) | – | inactive: 9.16%
7 | CN(C1CCCCC1)S(=O)(=O)c1ccc(F)c(C(=O)Nc2ccc(C(F)(F)F)cc2)c1 | – | inactive: -10.9%
8 | COc1ccc(NC(=O)c2c(NCc3cccs3)sc3c2CCCCC3)cc1 | – | inactive: -13.7%
9 | CCN(CC)P1(=O)OC(c2cc(OC)c(OC)c(OC)c2)=Nc2c1c(C)nn2-c1ccccc1 (configuration not stated) | inconclusive: 39.8 µM [activator, single point] | –
10 | COCCCn1c(SCC(=O)NCc2ccco2)nc2sc3c(c2c1=O)CCC3 | inconclusive: 31.6 µM [activator, single point] | –
11 | CCCC1Cc2c(sc(NC(=S)NC(=O)c3ccccc3)c2C#N)CO1 (configuration not stated) | inconclusive: 31.6 µM [inhibitor, single point] | –
12 | O=C(COC(=O)C1CCN(S(=O)(=O)c2ccccc2)CC1)NC(=O)c1ccc(OC(F)F)cc1 | inconclusive: 20 µM [inhibitor, single point] | –
13 | COc1ccc(CCNc2ncnc3c2nnn3C)cc1OC | – | inactive: -4.81%
14 | Cc1ccc(N2C(=O)/C(=C/c3cccnc3)SC2=S)cc1 | inconclusive: 39.8 µM [activator, single point] | –
15 | Fc1ccccc1N1CCN(c2nnc(C(F)(F)F)c3nnn(Cc4ccccc4)c23)CC1 | – | inactive: 13.6%
16 | CN(c1cccc(Cl)c1)S(=O)(=O)c1cccc(C(=O)Nc2ccc3c(c2)CCC3)c1 | inconclusive: 39.8 µM [inhibitor, single point] | –
17 | Cc1ccc(Cl)cc1N1CCN(C2(c3ccccc3)C(=O)c3ccccc3C2=O)CC1 | inconclusive: 3.16 µM [inhibitor, single point] | –
18 | CCc1cccc(CC)c1NC(=S)NCc1ccc2[nH]c(C)cc2c1 | inconclusive: 31.6 µM [inhibitor, single point] | –
19 | CCC(CC)C(=O)Nc1nnc(SCc2cc(=O)c3ccccc3[nH]2)s1 | inconclusive: 1.58 µM [activator, partial curve, poor fit] | –
20 | COCCCn1c(=NC(=O)c2ccncc2)c(C#N)cc2c(=O)n3cccc(C)c3nc21 | inconclusive: 12.6 µM [activator, single point] | –
21 | CCCCOc1ncnc2c1[nH]c1ccc(F)cc12 | inconclusive: 39.8 µM [inhibitor, single point] | –

Row | Compound | Potency | max response, negative = inhibition
22 | CCCCC1S/C(=N/N=C/c2cccs2)NC1=O (configuration not stated) | inconclusive: 39.8 µM [inhibitor, single point] | –
23 | CCc1c(O)nc(SCC(=O)Nc2ccc(OC)cc2)n(C2CCCCC2)c1=O | inconclusive: 31.6 µM [inhibitor, single point] | –
24 | Fc1cccc(NCc2ccccc2-c2nnc(-c3ccccc3Cl)o2)c1 | – | inactive: 3.86%
25 | CC(C)[C@H](NC(=O)c1ccccc1)C(=O)OCc1nc2scc(-c3ccccc3)c2c(=O)[nH]1 | inconclusive: 31.6 µM [inhibitor, single point] | –
26 | O=C(c1cc2nc(-c3ccco3)cc(C(F)(F)F)n2n1)N1CCc2ccccc2C1 | inconclusive: 31.6 µM [activator, single point] | –
27 | O=C(CNc1cccc(Cl)c1)c1ccc(Cl)cc1 | active: 31.6 µM | –
28 | O=C(Nc1cccc(-c2nc3cccnc3s2)c1)C1c2ccccc2Oc2ccccc21 | active: 20 µM | –
29 | COC(=O)c1sc(NC(=O)C2c3ccccc3Oc3ccccc32)c(C(=O)OC)c1C | active: 10 µM | –
30 | COc1ccc(C)cc1NC(=O)C1CCCN(S(=O)(=O)c2ccc3c(c2)CCCN3C(C)=O)C1 (configuration not stated) | inconclusive: 39.8 µM [activator, single point] | –
31 | CCC(C)NS(=O)(=O)c1ccc(N2CCCCS2(=O)=O)cc1 (configuration not stated) | – | inactive: 6.06%
32 | COc1ccc(NC(=O)c2ccc(-c3ccc(C)c4ccccc34)o2)cc1 | inconclusive: 25.1 µM [inhibitor, single point] | –
33 | Cc1ccc(C(=O)Nc2c(-c3ccccc3)nc3ccccn23)cc1C | – | inactive: -2.47%
34 | Cc1nn(-c2ccc(F)cc2)c(-n2cccc2)c1C(=O)N1CCN(c2ccc(F)cc2)CC1 | inconclusive: 25.1 µM [activator, partial curve] | –
35 | COc1ccc(NC(C)=O)cc1NC(=O)CN1CCN(C2c3ccccc3-c3ccccc32)CC1 | inconclusive: 25.1 µM [activator, single point] | –
36 | O=C(CCCOc1ccc(Cl)cc1Cl)N1CCN(c2ccccn2)CC1 | inconclusive: 31.6 µM [activator, single point] | –
37 | CCOc1cc(NS(=O)(=O)c2ccc(NC(C)=O)cc2)c(OCC)cc1NC(=O)C(C)C | inconclusive: 39.8 µM [activator, single point] | –
38 | c1csc(CNc2ccnc(-c3ccoc3)n2)c1 | – | inactive: -24.5%
39 | CCc1cccc2c1NC(=O)[C@]21[C@@H]2C(=O)N(Cc3ccccc3)C(=O)[C@@H]2[C@@H]2CCCN21 | inconclusive: 39.8 µM [activator, single point] | –
40 | COc1ccc(S(=O)(=O)N(C)CC(=O)Nc2ccc3c(c2)OCO3)cc1 | – | inactive: -9.86%
41 | CCn1cc(C(=O)N2CCN(c3cccc(Cl)c3)CC2)c(=O)c2cc(S(=O)(=O)N3CCOCC3)ccc21 | inconclusive: 6.31 µM [activator, full curve] | –
42 | COC(=O)c1ccc(CSc2nc3c(c(=O)n2-c2ccc(Br)cc2)SCC3)o1 | inconclusive: 39.8 µM [inhibitor, single point] | –
